Assay results reported in US20250019450A1 (DIAGONAL THERAPEUTICS, published 2025).

Key:
[1] = molecular target: T1, human IL-12Rβ2, Acro (BLI analyte) (human, UniProt Q99665 24-622, limits assumed); test: BLI (Octet), antibody on AHC tip
T1 sequence (looked up): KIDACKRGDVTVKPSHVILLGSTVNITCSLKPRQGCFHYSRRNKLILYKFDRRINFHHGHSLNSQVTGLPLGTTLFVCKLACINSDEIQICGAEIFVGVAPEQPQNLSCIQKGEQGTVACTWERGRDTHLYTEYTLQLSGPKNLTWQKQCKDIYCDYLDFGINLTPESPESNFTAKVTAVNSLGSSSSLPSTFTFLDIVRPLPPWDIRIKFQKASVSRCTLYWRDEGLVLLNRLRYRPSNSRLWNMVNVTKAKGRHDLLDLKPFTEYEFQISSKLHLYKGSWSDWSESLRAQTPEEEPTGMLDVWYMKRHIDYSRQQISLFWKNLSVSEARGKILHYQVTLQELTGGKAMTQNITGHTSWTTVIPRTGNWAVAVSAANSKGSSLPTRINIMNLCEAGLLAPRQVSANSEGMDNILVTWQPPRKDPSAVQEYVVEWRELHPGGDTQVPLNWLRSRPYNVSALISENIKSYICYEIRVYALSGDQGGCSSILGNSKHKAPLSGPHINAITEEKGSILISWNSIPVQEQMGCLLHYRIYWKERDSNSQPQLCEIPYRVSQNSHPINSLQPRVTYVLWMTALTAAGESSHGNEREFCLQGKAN

[2] = molecular target: human IL-12 receptor (IL-12Rβ1 and IL-12Rβ2) on HEK-Blue IL-12 cells (human, UniProt P42701 24-662; Q99665 24-862); test: cell-based or functional assay

B1: DGL428 (bispecific antibody, human IgG1, lambda)
heavy 1: QVQLVESGGGLAQAGGSLRLSCAASGRTFSNDDMAWFRQAPGKEREFVAHIDRNAASTNYADSVKGRFTISRDNAKNTVYLQMTRLKPEDTAVYYCAADPDHFGTTWYQQYTYWGPGTQVTV[human IgG1 Fc with C220S L234A L235A G237A S354C T366W (EU numbers) omitted]
heavy 2: [about 120 residues omitted]ASTKGPSVFPLAPSSKSTSGGTAALGCLVKDYFPEPVTVSWNSGALTSGVHTFPAVLQSSGLYSLSSVVTVPSSSLGTQTYICNVNHKPSNTKVDKKVEPKSCDKTHTCPPCPAPEAAGAPSVFLFPPKPKDTLMISRTPEVTCVVVDVSHEDPEVKFNWYVDGVEVHNAKTKPREEQYNSTYRVVSVLTVLHQDWLNGKEYKCKVSNKALPAPIEKTISKAKGQPREPQVCTLPPSRDELTKNQVSLSCAVKGFYPSDIAVEWESNGQPENNYKTTPPVLDSDGSFFLVSKLTVDKSRWQQGNVFSCSVMHEALHNRFTQKSLSLSPG
light: not shown
notes: 97B1 x 85802_10D03A
Kd [1]: 1.97 nM | EC50 [2]: 8.8e-10 M (implied) | Max Absorbance [2]: 1.03
